The text below walks through data of patent US20250270341A1 (Alector, published 2025).

The test deals with T1, Cyno CD98hc ECD Avi-His (cynomolgus macaque, UniProt P08195 105-529 (human entry)).
T1 construct: biotinylated on the Avi tag where captured on streptavidin; also called Cyno CD98-AVI-His; Cyno CD98hc-AVI-His
T1 chain: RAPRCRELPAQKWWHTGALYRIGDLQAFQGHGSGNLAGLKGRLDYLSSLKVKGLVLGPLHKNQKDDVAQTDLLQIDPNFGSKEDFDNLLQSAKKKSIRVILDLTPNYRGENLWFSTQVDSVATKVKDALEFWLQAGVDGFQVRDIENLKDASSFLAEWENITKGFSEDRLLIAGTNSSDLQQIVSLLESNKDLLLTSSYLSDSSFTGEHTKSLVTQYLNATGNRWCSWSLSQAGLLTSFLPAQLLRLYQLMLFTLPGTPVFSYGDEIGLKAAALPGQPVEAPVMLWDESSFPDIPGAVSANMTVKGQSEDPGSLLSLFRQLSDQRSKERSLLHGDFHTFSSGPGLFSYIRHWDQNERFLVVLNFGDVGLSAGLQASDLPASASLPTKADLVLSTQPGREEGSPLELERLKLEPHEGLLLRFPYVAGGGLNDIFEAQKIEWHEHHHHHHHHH
Briefly: ELISA, 1 ug/ml; ELISA, biotinylated cyno CD98hc captured on streptavidin plate, antibody 1 µg/ml; fold-change over isotype hIgG. How it is done: To determine binding retention of reformatted 2+1 anti-CD98hc bispecific antibodies by ELISA, high binding ELISA plates (Thermo Fisher) were coated with streptavidin (1 μg/ml, Thermo Fisher) overnight at 4° C. Plates were then washed three times with phosphate buffered saline with 0.05% tween-20 (PBST) and incubated with block buffer (PBS+1% BSA, 1 h, room temperature). Plates were washed three times again with PBST and incubated with biotinylated human, cyno, and mouse CD98hc and an irrelevant antigen, human transferrin receptor (1 μg/ml, 1 h, room temperature). Plates were washed three times again with PBST and incubated with anti-CD98hc antibodies (1 μg/ml, 1 h, room temperature). Plates were washed three times again with PBST and incubated with a secondary detection antibody, anti-human horseradish peroxidase conjugated antibody (1:5000 dilution, 30 min, room temperature). Plates were washed three times one last time and incubated with TMB-ELISA Substrate Solution (Thermo Fisher) and then quenched with H₂SO₄. Anti-CD98hc binding was then analyzed by quantifying optical density at 450 nm (OD₄₅₀) using the SpectraMax M5 (Molecular Devices). The binding characteristics of the various 2+1 anti-CD98hc bispecific antibodies to CD98hc (human, cyno, mouse) and control human TfR are summarized below in Table 16, shown as fold-change relative to isotype hIgG.

B1: CD98hc.04.058 (2+1 bispecific antibody) (bispecific antibody)
heavy 1: EVRLLESGGGLVQPGGSLRLSCAASGFTFSNYAMGWVRQAPGKGLEWVSAISGSGGSTYYADSVKGRFTTSRDDSKNALYLQMNSLRAEDTAVYYCARGGPGWYAADVWGQGTTVTVSSASTKGPSVFPLAPSSKSTSGGTAALGCLVKDYFPEPVTVSWNSGALTSGVHTFPAVLQSSGLYSLSSVVTVPSSSLGTQTYICNVNHKPSNTKVDKKV[here human IgG1 Fc with changes without letters]GGGGSGGGGSGGGGSQVQLQQSGAELVRPGVSVKISCKASGYTFTDHTMHWVKQSHARSLEWIGVISTYFGDASYNPKFKGKATMTVDKSSNTAYMELARLTSEDSAIYYCARVGGRLRLGYYFDYWGQGTTLTVSSGGSEGKSSGSGSESKSTGGSNIMMTQSPSSLAVSAGEKVTMNCKSSQTVLYSSNQKNYLAWYQQKPGQSPKLLIYWASTRESGVPDRFTGSGSGTDFTLTISSVQVEDLAVYYCHQYLSSYTFGGGTKLEIK
heavy 2: EVRLLESGGGLVQPGGSLRLSCAASGFTFSNYAMGWVRQAPGKGLEWVSAISGSGGSTYYADSVKGRFTTSRDDSKNALYLQMNSLRAEDTAVYYCARGGPGWYAADVWGQGTTVTVSS[here human IgG1 constant region with changes without letters]
light: DIQMTQSPSSLSASVGDRVTITCRASQSISSYLNWYQQKPGKAPKLLIYAASSLQSGVPSRFSGSGSGTDFTLTISSLQPEDFATYYCQQADLPAFAFGGGTKVEIKRTVAAPSVFIFPPSDEQLKSGTASVVCLLNNFYPREAKVQWKVDNALQSGNSQESVTEQDSKDSTYSLSSTLTLSKADYEKHKVYACEVTHQGLSSPVTKSFNRGEC
As to B1, the “ELISA fold-change relative to isotype hIgG” value amounted to 16.8.
